# Some of the results follow.
# Tested on: HSkMC (human skeletal muscle cells)
# Test: cytotoxicity call (relative viability < 0.9)
# Settings: 10 µM
row,SMILES,cytotoxicity call
1,Cc1noc(C)c1NC(=O)N(C)C[C@@H]1Oc2cc(C#CCN(C)C)ccc2S(=O)(=O)N([C@@H](C)CO)C[C@@H]1C,inactive
2,O=C(NCC[C@H]1CC[C@@H](NS(=O)(=O)c2cccc(F)c2)[C@H](CO)O1)C1CC1,inactive
3,C[C@H](CO)N1C[C@H](C)[C@@H](CN(C)S(=O)(=O)c2cn(C)cn2)Oc2ccc(NC(=O)CCN3CCOCC3)cc2CC1=O,inactive
4,COc1ccc(NC(=O)N(C)C[C@H]2Oc3ccc(NC(=O)Nc4cccc5ccccc45)cc3CC(=O)N([C@H](C)CO)C[C@@H]2C)cc1,inactive
5,C[C@H]1CN([C@@H](C)CO)C(=O)c2cc(NC(=O)Nc3cccc4ccccc34)ccc2O[C@H]1CN(C)C(=O)NC1CCCCC1,inactive
6,C[C@H]1CN([C@@H](C)CO)C(=O)Cc2cc(NS(=O)(=O)c3ccc(F)cc3)ccc2O[C@@H]1CN(C)S(=O)(=O)c1cn(C)cn1,inactive
7,C[C@@H]1CCCCO[C@@H](CN(C)Cc2ccncc2)[C@H](C)CN([C@H](C)CO)C(=O)c2cc(NC(=O)Cc3ccccc3)ccc2O1,inactive
8,CS(=O)(=O)Nc1ccc2c(c1)[C@@H]1C[C@H](CC(=O)NCC3CC3)O[C@@H](CO)[C@@H]1O2,inactive
9,O=C(C[C@@H]1CC[C@H](NC(=O)Cc2ccccn2)[C@H](CO)O1)NCCc1ccncc1,inactive
10,COCCOC(=O)C1=C(C)NC(C)=C(C(=O)OC(C)C)C1c1cccc([N+](=O)[O-])c1 (stereo unspecified),inactive
11,Cc1noc(C)c1NC(=O)N(C)C[C@H]1OCCCC[C@@H](C)Oc2ccc(NC(=O)Nc3ccc(F)cc3)cc2C(=O)N([C@H](C)CO)C[C@@H]1C,inactive
